# According to the supplement of paper PMC6531468:
# The other results are listed elsewhere or left out. These are enrichments in a pooled selection; single values are uncertain. Scores sum up all selected molecules that hold the word; the word was not tested alone.
# Experiments:
# Assay in all cases: 6-mer SELEX enrichment z-score vs GST control; IMP3 is the RNA-binding protein IGF2BP3; higher = more enriched by binding
# IMP3 KH1-4 = conditions: construct: KH1-4 (164-579); SELEX round: R4
# Experimental: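 SELEX-seq with GST-tagged IMP3 KH1-4 (Pro164-Lys579) and an N40 RNA pool, round 4. 6-mer z-score of sequence-tag enrichment normalised to the corresponding GST SELEX round; RNA k-mers written as DNA (T for U).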
# IMP3 RRM1-2 = conditions: construct: RRM1-2 (1-163); SELEX round: R2
# Experimental: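 SELEX-seq with GST-tagged IMP3 RRM1-2 (Met1-Asn163) and an N40 RNA pool, round 2. 6-mer enrichment z-score normalised to GST SELEX. RNA written as DNA (T = U).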
# IMP3 full-length = IMP3 full-length (UniProt O00425); conditions: construct: FL IMP3 (1-579); SELEX round: R4
# Experimental: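 SELEX-seq with GST-tagged full-length IMP3 and an N40 RNA pool, round 4. Each 6-mer is scored as an enrichment z-score of sequence tags containing it, normalised to the matching GST SELEX round. RNA written as DNA (T = U).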
# IMP3 KH1-2 = conditions: construct: KH1-2 (164-376); SELEX round: R4
# Experimental: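 SELEX-seq with GST-tagged IMP3 KH1-2 (Pro164-Phe376) and an N40 RNA pool, round 4 (stringent 300/600 mM KCl washes). 6-mer z-score of sequence-tag enrichment normalised to the corresponding GST SELEX round; RNA k-mers written as DNA (T for U).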
# IMP3 KH3-4 = conditions: construct: KH3-4 (377-579); SELEX round: R4
# Experimental: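 SELEX-seq with GST-tagged IMP3 KH3-4 (Pro377-Lys579) and an N40 RNA pool, round 4. 6-mer z-score of sequence-tag enrichment normalised to the corresponding GST SELEX round; RNA k-mers written as DNA (T for U).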
# Chain of UniProt O00425 (O00425 whole entry): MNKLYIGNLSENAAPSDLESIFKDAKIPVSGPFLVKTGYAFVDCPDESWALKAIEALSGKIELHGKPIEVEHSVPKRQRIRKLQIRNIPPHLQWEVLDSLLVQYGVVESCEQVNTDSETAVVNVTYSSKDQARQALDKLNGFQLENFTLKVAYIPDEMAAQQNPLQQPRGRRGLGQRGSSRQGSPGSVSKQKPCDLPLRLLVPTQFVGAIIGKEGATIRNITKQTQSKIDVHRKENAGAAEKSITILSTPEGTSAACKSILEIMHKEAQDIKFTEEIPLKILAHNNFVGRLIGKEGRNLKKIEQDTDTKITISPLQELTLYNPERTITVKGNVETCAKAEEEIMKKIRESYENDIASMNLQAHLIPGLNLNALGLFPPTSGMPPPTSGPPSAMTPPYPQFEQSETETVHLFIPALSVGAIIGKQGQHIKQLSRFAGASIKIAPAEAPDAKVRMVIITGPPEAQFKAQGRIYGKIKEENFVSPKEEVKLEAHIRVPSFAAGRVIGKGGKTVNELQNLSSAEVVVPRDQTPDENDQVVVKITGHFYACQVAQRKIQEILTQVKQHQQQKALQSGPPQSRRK
# Chain of IMP3 KH3-4 (chain, as listed by the source): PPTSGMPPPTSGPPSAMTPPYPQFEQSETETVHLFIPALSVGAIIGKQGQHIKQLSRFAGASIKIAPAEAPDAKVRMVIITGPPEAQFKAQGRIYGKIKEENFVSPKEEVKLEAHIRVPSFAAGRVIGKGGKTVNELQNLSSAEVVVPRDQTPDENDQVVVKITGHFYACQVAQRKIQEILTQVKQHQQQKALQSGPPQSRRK
# Chain of IMP3 KH1-4 (chain, as listed by the source): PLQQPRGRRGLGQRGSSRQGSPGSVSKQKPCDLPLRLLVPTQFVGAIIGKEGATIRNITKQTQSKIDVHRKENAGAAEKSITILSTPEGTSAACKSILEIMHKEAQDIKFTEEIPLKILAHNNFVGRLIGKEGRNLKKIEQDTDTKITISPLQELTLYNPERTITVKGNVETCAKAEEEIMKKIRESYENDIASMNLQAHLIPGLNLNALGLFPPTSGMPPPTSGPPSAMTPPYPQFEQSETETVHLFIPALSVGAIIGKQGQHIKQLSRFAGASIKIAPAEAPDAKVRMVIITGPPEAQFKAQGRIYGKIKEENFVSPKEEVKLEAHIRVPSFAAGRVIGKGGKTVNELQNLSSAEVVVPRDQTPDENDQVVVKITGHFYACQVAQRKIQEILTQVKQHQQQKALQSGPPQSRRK
# Chain of IMP3 RRM1-2 (chain, as listed by the source): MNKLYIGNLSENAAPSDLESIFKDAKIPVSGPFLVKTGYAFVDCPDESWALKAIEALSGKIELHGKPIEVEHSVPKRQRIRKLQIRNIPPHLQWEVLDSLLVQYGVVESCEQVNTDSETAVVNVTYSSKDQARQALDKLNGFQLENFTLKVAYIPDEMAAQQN
# Chain of IMP3 KH1-2 (chain, as listed by the source): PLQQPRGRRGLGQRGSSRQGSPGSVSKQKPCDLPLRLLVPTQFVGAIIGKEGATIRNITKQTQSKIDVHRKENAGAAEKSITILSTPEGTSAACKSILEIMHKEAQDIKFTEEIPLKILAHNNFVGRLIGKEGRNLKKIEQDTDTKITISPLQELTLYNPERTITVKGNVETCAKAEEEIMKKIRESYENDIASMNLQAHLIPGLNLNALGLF
Sequence,6-mer SELEX enrichment z-score (IMP3 KH1-4),6-mer SELEX enrichment z-score (IMP3 RRM1-2),6-mer SELEX enrichment z-score (IMP3 full-length),6-mer SELEX enrichment z-score (IMP3 KH1-2),6-mer SELEX enrichment z-score (IMP3 KH3-4)
AGCAAC,-0.522,0.903,0.634,-0.488,-0.694
TGGCGC,-0.157,0.375,0.476,-0.065,-0.033
ATGTTC,0.617,0.164,0.162,0.401,0.5
GGGGGG,1.34,0.435,0.72,2.41,1.55
AACTAC,0.411,-0.54,-0.592,0.748,0.339
AAATGG,0.278,-0.996,-0.674,-0.019,0.788
CTACAC,0.75,1.02,0.509,0.964,0.108
TTCGAT,-0.13,0.135,-0.14,-0.096,0.017
TAGGGA,0.525,-0.111,0.065,0.386,0.616
TGTATC,-0.269,0.207,-0.116,-0.21,-0.174
ATAGTG,0.548,0.044,0.114,0.259,0.618
CCAACG,-2.19,-0.975,-1.61,-2.12,-2.52
TGTTGA,-0.292,-0.1,-0.443,-0.327,-0.14
TGATCA,0.929,0.686,0.665,0.625,0.73
CGACCC,-1.63,-1.01,-1.36,-1.51,-2.27
AGCGAA,-2.2,-1.01,-1.21,-2.1,-1.96
CCGACG,-2.21,-0.979,-1.07,-1.93,-2.14
TTCCAC,0.835,0.422,0.09,0.722,0.092
TCATCT,0.683,0.936,1.05,0.539,0.341
CAAATC,-0.259,0.882,0.396,-0.164,-0.647
CCGTGA,-0.191,-0.872,-0.447,-0.208,-0.474
ACTCCC,-0.445,-0.338,-1.02,-0.387,-1.23
ACAGGG,0.957,0.462,0.927,1.1,1.05
CACAAG,-0.111,1.59,0.858,-0.082,-0.325
TCTACG,-0.283,0.013,-0.127,-0.263,-0.274
